# Data: the supplement of paper PMC3334620
# The full ranking holds about 33,000 sequences; the median of “E-score (-0.5 to 0.5)” is about -0.021, and the highest 2% start at about 0.32. The list shows a part of the results.
# Molecular target: T1, Zap1 (UniProt P47043)
# T1 sequence: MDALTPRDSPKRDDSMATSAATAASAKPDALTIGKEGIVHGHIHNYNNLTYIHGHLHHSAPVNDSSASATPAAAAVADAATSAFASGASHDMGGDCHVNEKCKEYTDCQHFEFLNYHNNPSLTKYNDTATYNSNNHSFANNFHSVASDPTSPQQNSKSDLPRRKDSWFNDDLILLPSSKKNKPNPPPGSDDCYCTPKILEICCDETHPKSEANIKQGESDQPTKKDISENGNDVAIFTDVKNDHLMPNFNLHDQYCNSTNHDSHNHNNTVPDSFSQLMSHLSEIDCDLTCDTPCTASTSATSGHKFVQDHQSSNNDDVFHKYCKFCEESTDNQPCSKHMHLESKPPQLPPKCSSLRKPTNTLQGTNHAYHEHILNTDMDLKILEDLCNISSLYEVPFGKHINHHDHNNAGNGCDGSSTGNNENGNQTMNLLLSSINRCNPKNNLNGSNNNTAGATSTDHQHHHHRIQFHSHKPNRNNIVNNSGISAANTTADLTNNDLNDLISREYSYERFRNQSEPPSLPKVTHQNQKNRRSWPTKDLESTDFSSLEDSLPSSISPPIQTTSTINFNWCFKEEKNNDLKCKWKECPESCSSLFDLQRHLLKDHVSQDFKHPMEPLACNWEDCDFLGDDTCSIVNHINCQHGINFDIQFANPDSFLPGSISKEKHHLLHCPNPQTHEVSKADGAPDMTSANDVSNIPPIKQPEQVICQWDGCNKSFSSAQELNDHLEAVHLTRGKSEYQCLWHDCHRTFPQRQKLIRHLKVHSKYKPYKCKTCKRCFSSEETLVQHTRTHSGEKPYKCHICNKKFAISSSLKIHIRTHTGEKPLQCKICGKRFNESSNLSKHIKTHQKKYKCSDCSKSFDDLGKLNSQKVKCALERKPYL
# Assay: PBM E-score (8-mer binding enrichment) (E-score (-0.5 to 0.5)); higher = stronger / more preferred TF binding; most listed sequences are background and not binding sites
# Details: protein concentration: 200 nM; construct: GST-full length
# Protocol: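 Universal 'all 10-mer' protein binding microarrays (Agilent AMADID 015681) probed with GST-tagged S. cerevisiae TFs (full-length or DBD) made by in vitro transcription/translation (PURExpress), about 100-200 nM. Bound TF was detected with fluorescent anti-GST. Each ungapped 8-mer (which stands for itself and its reverse complement) is scored by the PBM enrichment score (E-score), a modified Wilcoxon-Mann-Whitney statistic from -0.5 to +0.5, computed with the Universal PBM Analysis Suite. Scale: above 0.35 generally sequence-specific binding.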
row,Sequence,PBM E-score
1,AAATACTT,-0.154
2,ATGATACA,0.228
3,ACATACGC,-0.0732
4,GTATTCAC,0.12
5,TCTCGTAA,0.0724
6,CCCAGTCG,-0.279
7,AAACGTAC,-0.139
8,ATGCTACG,-0.141
9,AATTTCTG,0.00193
10,AAATTTAA,0.272
11,GAGCATAA,0.144
12,GTTCTGCA,0.0111
13,ATACGTAG,-0.107
14,CCGTGCTA,-0.168
15,ACTCAGCC,-0.208
16,CCATAGGC,-0.0525
17,ACGAGCTG,0.00917
18,CTTCTGAC,-0.1
19,CAAGCGCA,-0.0103
20,ACATGAAC,-0.0893
21,ATCACAGG,-0.0511
22,TGCTCCAA,-0.151

row,Sequence,PBM E-score
1,CCACCAAC,-0.0504
2,TAAAGACA,-0.0439
3,CGCCTCTC,-0.305
4,GAATGCTC,-0.374
5,CAGGCTGA,-0.175
6,CTCATAAC,0.181
7,ATGACAAT,0.113
8,ACCGGCGT,0.0116
9,TCGCTACA,-0.37
10,ATGAATGC,-0.155
11,ACTGCACT,-0.149
12,CGCAAAAC,0.0401
13,CATGACCG,0.177
14,CTTGAGAC,-0.0474
15,CACGAATG,0.137
16,ATAGGTAA,0.323
17,ACGCCTTC,-0.12
18,AGACCTCT,0.0443
19,AGACAGCT,-0.0493
20,AGTTAATA,0.165
21,GCACCCGC,-0.0934
22,CTCACCGC,-0.0442

row,Sequence,PBM E-score
1,AGGGTGAT,0.427
2,CGAATCGC,-0.11
3,ATCCTGCG,-0.119
4,TCCTTCCA,-0.195
5,CATTATTC,-0.0242
6,GGGAAGAA,-0.148
7,ACACAAGG,0.132
8,ATAGGTCG,0.021
9,ATGCCCAT,-0.208
10,ACTGCACA,-0.0828
11,CATCGTCG,-0.171
12,CGAAGACC,0.206
13,ATCCCCGG,-0.154
14,CTCTTAAG,0.134
15,AGTCGCCA,-0.224
16,CTTTGAGC,-0.0975
17,ATCGGACG,-0.161
18,GGTGAAGA,-0.0245
19,ACTAGCGG,0.0443
20,CAAGGAAA,-0.0145
21,TAGAGTCA,-0.166
22,GTTTTCCA,0.103

row,Sequence,PBM E-score
1,ATGCTCCC,-0.4
2,CGCGACTA,0.0593
3,TATGTTAA,0.0706
4,GGCCCTGA,-0.137
5,AATGTCAT,-0.0489
6,AAAAGACT,-0.12
7,GACGAGAC,-0.182
8,CGCTCTAA,-0.0756
9,ATACAGCA,-0.0997
10,TACTTGGA,0.113
11,GTGACGGA,-0.142
12,CAGCCGGG,-0.0325
13,CGCAGGAC,-0.0895
14,CATATATG,0.00011
15,TAGGGCCA,0.0256
16,AAAAGTTG,0.0566
17,TAGGCTGA,-0.249
18,CGCCAATC,-0.11
19,CAAACTCA,0.00911
20,ACCGTCAG,0.162
